In all, about 39,000 compounds went through this assay and about 220 (0.56%) showed activity. The list shows a part of the results.
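Note: static incubation at 37 °C against the wild-type strain, values averaged over two biological replicates.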

The test system of this experiment is Escherichia coli K-12 BW25113. As to the kind of experiment: relative growth (OD600 normalised to plate interquartile mean) (fraction); higher = less growth inhibition, active = 0.2 or less. The note with it: 50 µM; LB; incubation time: overnight (16-24 h).
For `C[C@H]1CN([C@@H](C)CO)C(=O)c2ccccc2-c2ccccc2CO[C@@H]1CN(C)C(=O)c1cc(Cl)cc(Cl)c1`, the relative growth was inactive: 0.983.

As to `C[C@@H]1CN([C@@H](C)CO)C(=O)c2cccc(NC(=O)CCCCCC(=O)Nc3ccccc3N)c2O[C@H]1CN(C)C(=O)Nc1ccccc1`, the relative growth was inactive: 0.981.

As for `C[C@@H]1CN([C@H](C)CO)C(=O)c2cc(NC(=O)Nc3ccc(F)cc3)ccc2O[C@@H](C)CCCCO[C@H]1CN(C)Cc1ccc(C(=O)O)cc1`, the relative growth was inactive: 0.932.

As to `C[C@@H]1CN([C@H](C)CO)C(=O)Cc2cc(NS(C)(=O)=O)ccc2O[C@H]1CN(C)Cc1ccc2c(c1)OCO2`, the relative growth was inactive: 1.

Regarding `C[C@@H]1CCCCO[C@H](CN(C)C(=O)Nc2cccc3ccccc23)[C@@H](C)CN([C@@H](C)CO)C(=O)c2cc(NS(=O)(=O)c3ccccc3)ccc2O1`, the relative growth was inactive: 1.01.

`Cc1cc(CCC[C@H](CC(=O)NO)C(=O)N[C@H](C(=O)N[C@H](C)c2ccccc2)C(C)(C)C)ccc1-c1ccccc1`: the relative growth is inactive: 0.879.

Regarding `C[C@@H]1CN([C@H](C)CO)C(=O)c2cc(NS(C)(=O)=O)ccc2O[C@H]1CN(C)S(=O)(=O)c1cn(C)cn1`, the relative growth is inactive: 1.04.

Consider `C[C@@H]1CCCCO[C@@H](CN(C)CC2CCCCC2)[C@@H](C)CN([C@@H](C)CO)C(=O)c2cc(NC(=O)Cc3ccccc3)ccc2O1`, for which the relative growth was inactive: 1.01.

For `CC(=O)N1CCOC[C@@]2(C1)CN(S(C)(=O)=O)CCO2`, the relative growth was inactive: 0.971.

Regarding `COC1=C(N)C(=O)c2nc(-c3nc(C(=O)O)c(C)c(-c4ccc(OC)c(OC)c4O)c3N)ccc2C1=O`, the relative growth is active: 0.038.

Consider `C[C@H]1CN([C@@H](C)CO)C(=O)c2cccc(NS(C)(=O)=O)c2O[C@@H]1CN(C)S(=O)(=O)c1cccs1`, for which the relative growth is inactive: 1.

Consider `C[C@H]1CCCCO[C@H](CN(C)C(=O)Cc2ccccc2)[C@@H](C)CN([C@@H](C)CO)C(=O)c2cc(NS(=O)(=O)c3ccc(F)cc3)ccc2O1`, for which the relative growth is inactive: 1.03.

For the compound `COc1ccc(NC(=O)Nc2ccc3c(c2)C(=O)N([C@@H](C)CO)C[C@H](C)[C@H](CN(C)Cc2ccc(Cl)c(Cl)c2)OCCCC[C@@H](C)O3)cc1`, the relative growth is inactive: 1.03.

Regarding `C[C@H](CO)N1C[C@H](C)[C@H](CN(C)C(=O)Nc2cccc3ccccc23)OCCCC[C@H](C)Oc2ccc(NS(C)(=O)=O)cc2C1=O`, the relative growth is inactive: 0.974.

As to `C[C@@H]1CN([C@H](C)CO)S(=O)(=O)c2ccc(C#Cc3cccc(F)c3)cc2O[C@@H]1CN(C)S(=O)(=O)c1ccccc1F`, the relative growth is inactive: 1.03.

Turning to `COc1cc(OC)cc(C(=O)OCCCNCCNCCCOC(=O)c2cc(OC)cc(OC)c2)c1`, the relative growth was inactive: 0.932.

Take `Cc1noc(C)c1NC(=O)Nc1cccc2c1O[C@H](CN(C)C(=O)NC(C)C)[C@@H](C)CN([C@@H](C)CO)C2=O`: the relative growth was inactive: 1.01.

Consider `CC(C)c1cccc(C(C)C)c1NC(=O)Cc1cccs1`, for which the relative growth is inactive: 0.853.

For `C[C@H](CO)N1C[C@H](C)[C@@H](CN(C)CC2CC2)Oc2c(NS(=O)(=O)c3ccccc3)cccc2C1=O`, the relative growth is inactive: 1.01.

As to `C[C@H](CO)N1C[C@H](C)[C@@H](CN(C)C(=O)Nc2cccc3ccccc23)Oc2ccc(NC(=O)Cc3ccccc3)cc2CC1=O`, the relative growth is inactive: 0.995.

With `C[C@H]1CN([C@@H](C)CO)S(=O)(=O)c2ccc(C3=CCCC3)cc2O[C@H]1CN(C)S(=O)(=O)c1cn(C)cn1`, the relative growth was inactive: 0.99.

Regarding `C[C@@H]1CCCCO[C@H](CN(C)S(=O)(=O)c2cccs2)[C@@H](C)CN([C@@H](C)CO)C(=O)c2cc(NC(=O)Nc3ccc(C(F)(F)F)cc3)ccc2O1`, the relative growth was inactive: 1.03.

For the compound `O=C(CCn1ccc(=O)[nH]c1=O)Nc1ccc2c(c1)NC(=O)CO2`, the relative growth is inactive: 0.895.

For `C[C@@H]1CN([C@@H](C)CO)C(=O)c2cccc(NS(=O)(=O)c3cccs3)c2O[C@H]1CN(C)S(=O)(=O)c1ccc(F)cc1`, the relative growth was inactive: 0.996.

With `C[C@@H]1CN([C@H](C)CO)C(=O)c2cc(NC(=O)C3CCCCC3)ccc2O[C@@H]1CN(C)C(=O)Nc1cccc2ccccc12`, the relative growth was inactive: 1.02.

As for `C[C@@H]1CCCCO[C@@H](CN(C)S(=O)(=O)c2ccccc2)[C@H](C)CN([C@H](C)CO)C(=O)c2cc(NC(=O)Nc3cccc4ccccc34)ccc2O1`, the relative growth was inactive: 1.03.

For `C[N+](C)(C)CC(O)CC(=O)[O-]` (stereo not given), the relative growth was inactive: 0.989.

Regarding `C[C@@H]1CN([C@@H](C)CO)C(=O)c2c(c3ccccc3n2C)-c2ccccc2CO[C@H]1CN(C)C(=O)Nc1ccc2c(c1)OCO2`, the relative growth was inactive: 0.989.

`COc1ccc(C#Cc2cnc3c(c2)C(=O)N([C@H](C)CO)C[C@H](C)[C@@H](CN(C)C(=O)CC2CC2)O3)cc1`: the relative growth is inactive: 1.01.

In the case of `C[C@H](CO)N1C[C@H](C)[C@H](CN(C)C(=O)Nc2ccc(N3CCCCC3)cc2)OCc2cn(nn2)CCCC1=O`, the relative growth was inactive: 0.968.

As for `C[C@H]1CN([C@@H](C)CO)C(=O)c2cccc(NC(=O)c3ccc(-c4nccs4)cc3)c2O[C@H]1CN(C)Cc1ccc(-c2ccccc2)cc1`, the relative growth is inactive: 0.963.

With `C[C@@H]1CN([C@H](C)CO)C(=O)CCCn2nncc2CO[C@H]1CN(C)Cc1cccc2c1OCCCO2`, the relative growth is inactive: 0.983.

Consider `COCCOC(=O)N1C(=O)[C@@]2(c3cc(C#CC4=CCCCC4)ccc31)[C@H](C(=O)NC[C@H](O)c1ccccc1)[C@H]1C(=O)O[C@H](c3ccccc3)[C@H](c3ccccc3)N1[C@@H]2c1ccc(O)cc1`, for which the relative growth was inactive: 1.04.

In the case of `Cc1noc(C)c1NC(=O)Nc1ccc2c(c1)C(=O)N([C@@H](C)CO)C[C@@H](C)[C@@H](CN(C)Cc1ccc3c(c1)OCO3)OCCCC[C@H](C)O2`, the relative growth was inactive: 1.01.

For the compound `C[C@@H]1CN([C@H](C)CO)C(=O)Cc2cc(NC(=O)Nc3ccc4c(c3)OCO4)ccc2O[C@H]1CN(C)S(C)(=O)=O`, the relative growth is inactive: 1.02.

For the compound `COc1cc(O)c2c(=O)cc(C)oc2c1CC=C(C)C`, the relative growth was inactive: 0.918.

For the compound `C[C@@H]1CCCCO[C@@H](CN(C)S(=O)(=O)c2cccs2)[C@@H](C)CN([C@H](C)CO)C(=O)c2cc(NC(=O)Nc3ccccc3)ccc2O1`, the relative growth was inactive: 1.02.

As for `COc1ccc2c3c([nH]c2c1)[C@@H](CO)N(C[C@]13CN(CC2CCOCC2)C1)C(=O)Nc1c(noc1C)C`, the relative growth is inactive: 0.984.

Turning to `C[C@H](O)[C@H](O)[C@@H](O)[C@@H](O)/C=N/NC(=O)c1ccccn1`, the relative growth was inactive: 1.

On to `COCCNC(=O)C[C@@H]1CC[C@@H]2[C@@H](COc3ccc(NS(=O)(=O)c4ccc(Cl)cc4)cc3C(=O)N2C)O1`, for which the relative growth was inactive: 0.988.

As for `C=CCn1c(N2CCN(c3ccc(OC)cc3)CC2)nc2c1c(=O)n(C)c(=O)n2C`, the relative growth was inactive: 0.996.

On to `COc1ccc(CN(C)C[C@@H]2Oc3ccc(NC(=O)Nc4ccc(C(F)(F)F)cc4)cc3CC(=O)N([C@H](C)CO)C[C@H]2C)cc1`, for which the relative growth was inactive: 0.969.

Turning to `CC(C)(N)CN1CCCCC1`, the relative growth was inactive: 0.994.

Regarding `Cc1noc(C)c1NC(=O)N(C)C[C@H]1OCCCC[C@@H](C)Oc2ccc(NC(=O)Nc3ccc4c(c3)OCO4)cc2C(=O)N([C@@H](C)CO)C[C@H]1C`, the relative growth was inactive: 0.989.

As for `COc1ccc(S(=O)(=O)N(C)C[C@H]2OCCCC[C@H](C)Oc3ccc(NC(=O)Nc4ccc(C(F)(F)F)cc4)cc3C(=O)N([C@@H](C)CO)C[C@H]2C)cc1`, the relative growth is inactive: 1.01.

As for `O=C(O)/C=C/C(=O)O`, the relative growth is inactive: 1.02.

As for `C[C@H]1CN([C@@H](C)CO)C(=O)c2cccc(NC(=O)C3CCOCC3)c2O[C@H]1CN(C)Cc1ccncc1`, the relative growth was inactive: 1.01.

`C[C@H]1CN([C@@H](C)CO)S(=O)(=O)c2ccc(C#CCN(C)C)cc2O[C@@H]1CN(C)Cc1ccccn1`: the relative growth is inactive: 0.992.

As to `O=C(C[C@H]1C=C[C@H](NC(=O)Cc2ccccn2)[C@@H](CO)O1)NCCc1ccncc1`, the relative growth was inactive: 0.991.

Take `C[C@@H]1CN([C@H](C)CO)C(=O)c2cc(C#CC3CCCCC3)cnc2O[C@@H]1CN(C)C(=O)Cc1ccccn1`: the relative growth is inactive: 1.

`CC(C)NC(=O)N(C)C[C@@H]1OCc2cnnn2CCCC(=O)N([C@H](C)CO)C[C@H]1C`: the relative growth is inactive: 0.99.

For `C[C@H](CO)N1C[C@H](C)[C@@H](CN(C)S(=O)(=O)c2ccc(F)cc2)Oc2ccc(NC(=O)c3ccncc3)cc2CC1=O`, the relative growth is inactive: 0.989.

`C[C@H](NC(=O)C[C@H]1C=C[C@H](NC(=O)CN2CCOCC2)[C@@H](CO)O1)c1ccccc1`: the relative growth is inactive: 0.983.

`C[C@@H]1CN([C@@H](C)CO)C(=O)c2cc(NC(=O)c3ccncc3)ccc2O[C@@H]1CN(C)Cc1ccncc1`: the relative growth is inactive: 0.993.

`COc1ccc(S(=O)(=O)N2C[C@H](O)COC[C@H]3O[C@H](CC(=O)N[C@@H]4CCN(Cc5ccccc5)C4)CC[C@@H]32)cc1`: the relative growth was inactive: 1.01.

Regarding `COc1cccn(CC(=O)N2CCO[C@@H](CCN)C2)c1=O`, the relative growth is inactive: 1.01.

On to `COc1ccc(NC(=O)Nc2ccc3c(c2)C(=O)N([C@H](C)CO)C[C@H](C)[C@@H](CN(C)Cc2ccc(C(F)(F)F)cc2)OCCCC[C@@H](C)O3)cc1`, for which the relative growth was inactive: 1.06.

Consider `C[C@H]1CN([C@@H](C)CO)C(=O)c2cc(NC(=O)C3CC3)ccc2O[C@@H]1CN(C)S(=O)(=O)c1cn(C)cn1`, for which the relative growth is inactive: 0.941.

Consider `CC(=O)NCCCC[C@@H]1NC(=O)[C@@H]2C[C@H](C(=O)NCCCCCCN)[C@H](c3cccc(OCCO)c3)N2C1=O`, for which the relative growth is inactive: 1.

Consider `C[C@@H](O)[C@H](N)C(=O)N[C@@H](CCCCN)C(=O)N1CCC[C@H]1C(=O)N[C@@H](CCCNC(=N)N)C(=O)O`, for which the relative growth is inactive: 1.03.

(Values after the supplement of paper PMC9446081.)
